Laboratory results from the supplement of paper PMC9446081.
About 220 (0.56%) of roughly 39,000 compounds showed activity. The list shows a part of the results.

test system: Escherichia coli K-12 BW25113; experiment: relative growth (OD600 normalised to plate interquartile mean) (fraction); higher = less growth inhibition, active = 0.2 or less; conditions: 50 µM; LB; incubation time: overnight (16-24 h)
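Note: static incubation at 37 °C against the wild-type strain, values averaged over two biological replicates.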

Structure (SMILES) | relative growth
C[C@H]1CN([C@@H](C)CO)C(=O)c2cccc(NS(=O)(=O)c3ccc(Cl)cc3)c2O[C@H]1CN(C)C(=O)Nc1ccc(C(F)(F)F)cc1 | inactive: 1.01
C[C@@H]1CCCCO[C@H](CN(C)Cc2ccccc2)[C@@H](C)CN([C@H](C)CO)C(=O)c2cc(NC(=O)Cc3ccccc3)ccc2O1 | inactive: 1.03
N[C@H](CCC(=O)NCC(=O)O)C(=O)O | inactive: 1.02
C[C@@H]1CCCCO[C@H](CN(C)Cc2ccc(C(F)(F)F)cc2)[C@H](C)CN([C@@H](C)CO)C(=O)c2cc(NC(=O)Nc3ccc(F)cc3)ccc2O1 | inactive: 1.04
C[C@@H]1CCCCO[C@H](CN(C)S(=O)(=O)c2ccc(F)cc2)[C@H](C)CN([C@H](C)CO)C(=O)c2cc(NC(=O)NC3CCCCC3)ccc2O1 | inactive: 1
C[C@@H](CO)N1C(=O)[C@@H]2[C@H]3C(=O)OCCC=C[C@H]3O[C@]23C=CCN(CCN2CCOCC2)C(=O)[C@@H]13 | inactive: 0.989
C[C@H](CO)N1C[C@H](C)[C@H](CN(C)C(=O)Nc2ccc3c(c2)OCO3)Oc2ncc(C#CC(C)(C)O)cc2C1=O | inactive: 0.983
CCCNS(=O)(=O)c1c[nH]c(C(=O)OC)c1 | inactive: 1.03
COc1ccccc1-c1ccc2c(c1)O[C@H](CN(C)C(=O)c1ccncc1)[C@@H](C)CN([C@H](C)CO)S2(=O)=O | inactive: 1.01
C[C@H]1CCCCO[C@H](CN(C)Cc2ccc(C(F)(F)F)cc2)[C@@H](C)CN([C@@H](C)CO)C(=O)c2cc(NC(=O)CCCN(C)C)ccc2O1 | inactive: 0.982
O=C1c2ccccc2[C@@]2(Cc3ccccc3N(CCN3CCOCC3)C2=O)[C@H](c2ccc(CO)cc2)N1Cc1ccccc1Cl | inactive: 0.994
CCOC(=O)CCCCCC(=O)Nc1ccc2c(c1)C(=O)N([C@@H](C)CO)C[C@@H](C)[C@H](CN(C)C(=O)Nc1ccccc1)OCCCC[C@H](C)O2 | inactive: 1.04
C[C@H]1CN([C@@H](C)CO)C(=O)c2cc(NC(=O)Nc3ccc(C(F)(F)F)cc3)ccc2O[C@H]1CN(C)Cc1ccc(C(=O)Nc2ccccc2N)cc1 | inactive: 1.02
C[C@H](CO)N1C[C@H](C)[C@H](CN(C)C(=O)Nc2ccc(C(F)(F)F)cc2)Oc2ccc(NC(=O)C3CCCCC3)cc2C1=O | inactive: 0.983
C[C@@H]1CN([C@@H](C)CO)C(=O)c2cc(NC(=O)Nc3ccc(F)cc3)ccc2O[C@@H]1CN(C)CC1CCCCC1 | inactive: 0.989
CC(C)NC(=O)N(C)C[C@H]1Oc2c(NC(=O)Nc3ccc4c(c3)OCO4)cccc2C(=O)N([C@H](C)CO)C[C@H]1C | inactive: 0.98
